In test [1] the target is T1, FLAG-MAGE-A11 wild-type (human) (UniProt P43364).
T1 sequence: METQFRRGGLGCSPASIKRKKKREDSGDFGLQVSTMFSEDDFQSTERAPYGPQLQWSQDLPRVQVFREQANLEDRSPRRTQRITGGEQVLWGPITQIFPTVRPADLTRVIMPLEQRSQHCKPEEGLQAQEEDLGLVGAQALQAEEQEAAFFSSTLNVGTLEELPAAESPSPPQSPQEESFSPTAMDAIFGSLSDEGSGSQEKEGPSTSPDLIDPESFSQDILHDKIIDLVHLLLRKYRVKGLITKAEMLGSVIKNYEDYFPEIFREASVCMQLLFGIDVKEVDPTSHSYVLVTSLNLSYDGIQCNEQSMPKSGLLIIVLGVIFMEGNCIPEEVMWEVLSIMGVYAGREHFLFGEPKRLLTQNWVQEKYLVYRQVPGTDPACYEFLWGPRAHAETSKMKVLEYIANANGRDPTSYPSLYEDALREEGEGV
Description: co-IP; HEK293FT cells stably expressing FLAG-MAGE-A11 wild-type or mutants; pull-down with anti-FLAG, immunoblot anti-HUWE1 and anti-PCF11; in Fig. 5h lysates were incubated with 100 µM SJ521054 or SJ1008066 for 24 h. On the technique in general: In western blotting, separated proteins are transferred to a membrane and probed.

Protein sequences, listed by entry. Tags and fused reporters are not part of them. Lines headed by an entry give the natural chain unless they say otherwise; changes in a name come on top. Chains listed by the source or under a name are the forms on record and can include a tag or linker.
UniProt P43357: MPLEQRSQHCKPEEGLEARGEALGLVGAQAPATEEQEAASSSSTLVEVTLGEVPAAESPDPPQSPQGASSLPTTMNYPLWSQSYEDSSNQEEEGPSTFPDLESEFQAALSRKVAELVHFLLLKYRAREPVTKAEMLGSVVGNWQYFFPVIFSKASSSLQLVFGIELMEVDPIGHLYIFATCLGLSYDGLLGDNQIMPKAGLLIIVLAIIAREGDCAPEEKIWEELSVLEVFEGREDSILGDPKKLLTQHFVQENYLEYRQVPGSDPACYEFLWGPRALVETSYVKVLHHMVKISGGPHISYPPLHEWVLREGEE
UniProt O94913: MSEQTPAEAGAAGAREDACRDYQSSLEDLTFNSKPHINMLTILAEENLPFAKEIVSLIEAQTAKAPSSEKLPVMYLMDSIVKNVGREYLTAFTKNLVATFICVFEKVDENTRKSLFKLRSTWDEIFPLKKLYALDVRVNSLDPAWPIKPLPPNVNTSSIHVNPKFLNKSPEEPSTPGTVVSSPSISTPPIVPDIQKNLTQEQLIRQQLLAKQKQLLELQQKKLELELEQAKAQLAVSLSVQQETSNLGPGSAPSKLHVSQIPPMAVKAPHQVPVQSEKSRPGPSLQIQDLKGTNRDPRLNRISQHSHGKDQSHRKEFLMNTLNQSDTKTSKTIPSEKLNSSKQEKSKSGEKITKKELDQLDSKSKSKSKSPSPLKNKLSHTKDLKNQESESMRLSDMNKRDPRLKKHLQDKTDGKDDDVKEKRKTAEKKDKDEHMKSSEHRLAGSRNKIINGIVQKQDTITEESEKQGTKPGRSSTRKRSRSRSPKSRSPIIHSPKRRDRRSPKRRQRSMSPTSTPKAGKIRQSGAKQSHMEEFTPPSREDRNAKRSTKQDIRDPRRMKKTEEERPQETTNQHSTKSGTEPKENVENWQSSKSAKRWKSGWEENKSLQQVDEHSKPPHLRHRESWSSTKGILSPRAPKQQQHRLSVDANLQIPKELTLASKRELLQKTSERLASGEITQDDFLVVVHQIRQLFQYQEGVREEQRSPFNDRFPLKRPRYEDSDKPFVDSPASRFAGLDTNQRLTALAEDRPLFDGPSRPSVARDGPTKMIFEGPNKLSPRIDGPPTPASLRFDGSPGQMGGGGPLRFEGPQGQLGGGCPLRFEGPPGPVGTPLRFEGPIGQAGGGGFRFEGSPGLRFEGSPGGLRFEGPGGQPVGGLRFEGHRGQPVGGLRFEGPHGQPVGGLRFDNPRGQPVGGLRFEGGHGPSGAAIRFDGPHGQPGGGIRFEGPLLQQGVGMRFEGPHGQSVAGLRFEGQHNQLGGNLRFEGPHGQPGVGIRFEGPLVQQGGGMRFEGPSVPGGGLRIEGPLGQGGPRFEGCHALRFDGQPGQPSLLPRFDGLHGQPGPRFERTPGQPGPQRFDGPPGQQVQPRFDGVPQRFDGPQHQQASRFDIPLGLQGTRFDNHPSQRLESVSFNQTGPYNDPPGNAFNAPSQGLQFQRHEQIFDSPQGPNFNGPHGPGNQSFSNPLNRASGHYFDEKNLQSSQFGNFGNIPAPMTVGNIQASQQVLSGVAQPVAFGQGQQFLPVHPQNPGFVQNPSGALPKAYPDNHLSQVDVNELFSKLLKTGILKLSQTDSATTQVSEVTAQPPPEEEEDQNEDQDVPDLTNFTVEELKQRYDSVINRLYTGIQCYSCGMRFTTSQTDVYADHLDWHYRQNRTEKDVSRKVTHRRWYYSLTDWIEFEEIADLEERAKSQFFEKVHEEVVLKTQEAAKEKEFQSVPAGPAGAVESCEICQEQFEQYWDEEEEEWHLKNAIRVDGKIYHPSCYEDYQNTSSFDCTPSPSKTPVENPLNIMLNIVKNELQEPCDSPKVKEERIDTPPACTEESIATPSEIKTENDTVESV
PCF11 653-702 deletion construct (Myc-tagged, transfected) (O94913, form named): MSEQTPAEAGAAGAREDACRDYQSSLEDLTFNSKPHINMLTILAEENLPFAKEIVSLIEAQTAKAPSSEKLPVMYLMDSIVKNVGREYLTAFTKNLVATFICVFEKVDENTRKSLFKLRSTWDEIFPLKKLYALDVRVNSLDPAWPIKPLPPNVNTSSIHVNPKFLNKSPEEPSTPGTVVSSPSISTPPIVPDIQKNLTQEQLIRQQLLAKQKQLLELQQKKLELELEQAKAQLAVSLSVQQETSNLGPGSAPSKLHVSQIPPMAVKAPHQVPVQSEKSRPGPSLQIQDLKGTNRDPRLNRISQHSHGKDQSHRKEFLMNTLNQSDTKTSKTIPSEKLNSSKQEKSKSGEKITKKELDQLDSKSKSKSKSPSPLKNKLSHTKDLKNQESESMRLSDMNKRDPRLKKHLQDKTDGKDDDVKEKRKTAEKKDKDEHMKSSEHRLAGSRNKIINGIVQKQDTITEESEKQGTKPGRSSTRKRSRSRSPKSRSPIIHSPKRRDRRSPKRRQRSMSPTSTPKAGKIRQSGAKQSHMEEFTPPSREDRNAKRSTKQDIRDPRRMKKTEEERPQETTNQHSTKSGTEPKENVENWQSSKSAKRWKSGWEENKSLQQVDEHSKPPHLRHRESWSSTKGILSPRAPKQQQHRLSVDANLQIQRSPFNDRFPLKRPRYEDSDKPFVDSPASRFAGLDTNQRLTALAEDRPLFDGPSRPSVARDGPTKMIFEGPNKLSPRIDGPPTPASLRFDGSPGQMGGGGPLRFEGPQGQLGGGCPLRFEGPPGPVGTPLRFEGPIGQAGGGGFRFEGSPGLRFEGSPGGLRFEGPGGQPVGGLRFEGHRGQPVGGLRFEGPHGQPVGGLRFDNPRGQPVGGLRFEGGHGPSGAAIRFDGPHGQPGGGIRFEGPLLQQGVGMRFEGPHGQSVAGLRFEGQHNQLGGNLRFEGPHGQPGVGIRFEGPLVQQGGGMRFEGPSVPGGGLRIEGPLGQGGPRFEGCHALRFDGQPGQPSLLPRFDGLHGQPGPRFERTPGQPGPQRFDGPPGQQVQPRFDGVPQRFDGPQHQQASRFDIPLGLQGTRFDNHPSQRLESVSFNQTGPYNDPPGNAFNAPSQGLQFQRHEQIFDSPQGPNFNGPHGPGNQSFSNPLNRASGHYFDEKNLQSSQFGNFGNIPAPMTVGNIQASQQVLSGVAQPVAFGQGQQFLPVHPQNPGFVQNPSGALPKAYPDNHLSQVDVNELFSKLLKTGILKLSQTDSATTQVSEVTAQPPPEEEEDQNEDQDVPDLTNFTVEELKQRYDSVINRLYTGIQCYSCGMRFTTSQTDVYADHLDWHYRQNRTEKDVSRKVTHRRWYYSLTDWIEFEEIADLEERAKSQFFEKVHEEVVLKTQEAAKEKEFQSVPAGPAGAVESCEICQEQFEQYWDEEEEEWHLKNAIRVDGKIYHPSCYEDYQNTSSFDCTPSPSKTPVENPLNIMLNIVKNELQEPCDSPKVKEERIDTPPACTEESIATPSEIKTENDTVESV
UniProt Q13263: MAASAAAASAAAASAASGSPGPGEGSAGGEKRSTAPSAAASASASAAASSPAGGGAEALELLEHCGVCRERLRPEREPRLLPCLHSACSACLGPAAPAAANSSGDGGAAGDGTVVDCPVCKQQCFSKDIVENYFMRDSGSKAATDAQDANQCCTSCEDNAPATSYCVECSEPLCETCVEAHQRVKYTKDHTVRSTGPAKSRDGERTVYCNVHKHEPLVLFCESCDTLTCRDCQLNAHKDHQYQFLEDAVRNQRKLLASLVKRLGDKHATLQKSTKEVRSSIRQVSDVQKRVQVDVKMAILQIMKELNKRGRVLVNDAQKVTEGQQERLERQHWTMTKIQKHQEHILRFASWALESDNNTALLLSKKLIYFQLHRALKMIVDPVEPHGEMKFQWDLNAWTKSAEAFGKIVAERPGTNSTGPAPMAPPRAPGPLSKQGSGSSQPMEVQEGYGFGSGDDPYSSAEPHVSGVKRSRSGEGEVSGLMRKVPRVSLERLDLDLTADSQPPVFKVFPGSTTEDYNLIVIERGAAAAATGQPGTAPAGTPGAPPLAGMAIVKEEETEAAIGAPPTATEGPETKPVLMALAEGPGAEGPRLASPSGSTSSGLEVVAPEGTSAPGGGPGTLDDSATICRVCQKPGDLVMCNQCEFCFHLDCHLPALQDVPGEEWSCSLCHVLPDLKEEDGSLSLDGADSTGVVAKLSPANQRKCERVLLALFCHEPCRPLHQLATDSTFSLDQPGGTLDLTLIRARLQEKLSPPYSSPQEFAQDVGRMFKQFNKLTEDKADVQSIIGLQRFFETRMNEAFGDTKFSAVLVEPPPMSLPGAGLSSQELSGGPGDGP
UniProt P58546: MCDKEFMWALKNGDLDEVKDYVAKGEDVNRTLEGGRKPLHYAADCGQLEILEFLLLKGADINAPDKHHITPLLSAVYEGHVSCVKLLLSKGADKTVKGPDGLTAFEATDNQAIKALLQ

In test [2] the target is T2, FLAG-MAGE-A11 I317R (human) (UniProt P43364).
T2 sequence: T1 sequence with I317R
The test is described as above.

The target in test [3] is T3, FLAG-MAGE-A11 M341R (human) (UniProt P43364).
T3 sequence: T1 sequence with M341R
The test is described as above.

Test [4] has as its target T1, FLAG-MAGE-A11 wild-type (human). Description: co-IP; HEK293FT cells stably expressing FLAG-MAGE-A11, transfected with PCF11 wild-type or 653-702 deletion construct for 48 h; IP with anti-FLAG, immunoblot anti-Myc.
A further test addresses Myc-MAGE-A3 I204R (UniProt P43357). The experiment in a line: co-IP; HeLa cells transfected with the indicated constructs for 48 h; IP with anti-Myc, immunoblot; in Fig. 5i lysates were incubated with 100 µM SJ521054 or SJ1008066 for 24 h.
Another test addresses Myc-MAGE-A3 L228R (UniProt P43357). The test is described as above.
The next test concerns the target Myc-MAGE-A3 wild-type (UniProt P43357). The description is as above.
Another test addresses Myc-MAGE-A3 F162A (UniProt P43357). The test is described as above.
The next test has as its target Myc-MAGE-A3 Y301A (UniProt P43357). The description is as above.
For test [5], the target named is T4, FLAG-MAGE-A11 Y414A (human) (UniProt P43364).
T4 sequence: T1 sequence with Y414A
The experiment in a line: co-IP; HEK293FT cells stably expressing FLAG-MAGE-A11 wild-type or mutants; pull-down with anti-FLAG, immunoblot anti-HUWE1 and anti-PCF11; in Fig. 5h lysates were incubated with 100 µM SJ521054 or SJ1008066 for 24 h.

Test [6] has as its target T5, FLAG-MAGE-A11 F275A (human) (UniProt P43364).
T5 sequence: T1 sequence with F275A
The description is as above.

Test [7] deals with T6, GST-MAGE-A11 MHD (human MAGE-A11 MHD amino acid 218-429) (human) (UniProt P43364).
T6 sequence: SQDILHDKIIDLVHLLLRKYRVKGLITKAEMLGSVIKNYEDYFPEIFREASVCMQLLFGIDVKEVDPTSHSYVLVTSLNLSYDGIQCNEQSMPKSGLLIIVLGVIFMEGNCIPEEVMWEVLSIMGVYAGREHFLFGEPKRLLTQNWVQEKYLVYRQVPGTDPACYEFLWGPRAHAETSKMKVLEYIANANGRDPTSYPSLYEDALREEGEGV
The experiment in a line: pull-down; purified GST-tagged protein on glutathione Sepharose beads, in vitro translated Myc-tagged protein (rabbit reticulocyte lysate) added; 25 mM Tris pH 8.0, 2.7 mM KCl, 137 mM NaCl, 0.05% Tween-20, 10 mM 2-mercaptoethanol, 5% milk powder; immunoblot anti-Myc; only the target purified.

Changes are numbered by the printed parent chain. No constants are given. Whether binding was seen depends on the method and setting. In cells and extracts the contact can be indirect. Some results given as binding are weak or reduced against the parent protein; the word gives no strength. For some of these results: Tags and fused reporters may be left off the sequences shown.

Take “endogenous PCF11 (from UniProt O94913 1-1555)”: the binding result is on record as “binds” in test [1], “no binding” in test [2] and “no binding” in [3].

Turning to “PCF11 653-702 deletion construct (Myc-tagged, transfected) (from UniProt O94913 1-1555)”, the binding result in test [4] is reported as “no binding”.

As to “TRIM28 (from UniProt Q13263 1-835) (enzyme)”, the binding result with Myc-MAGE-A3 I204R, with Myc-MAGE-A3 L228R, in the test with Myc-MAGE-A3 wild-type, with Myc-MAGE-A3 F162A and in the test with Myc-MAGE-A3 Y301A was “binds” throughout.

“HUWE1 (from UniProt Q7Z6Z7 1-4374) (enzyme)”: the binding entry in test [1], in test [5], in [2], in [6] and in [3] was “binds” each time.

For the substance “MTPN (Myc-tagged, in vitro translated) (from UniProt P58546 1-118)”, in test [7], the binding result is listed as “no binding”.

For the substance “PCF11 wild-type (Myc-tagged, transfected) (from UniProt O94913 1-1555)”, in [4], the binding entry is on record as “binds”.

The values are drawn from article PMC7529893, “Structural basis for substrate recognition and chemical inhibition of oncogenic MAGE ubiquitin ligases” (Nature Communications, 2020).
